This note sets out measurements from paper PMC4336329 (PLoS ONE, 2015).

Hit rate of the full screen: of about 310,000 compounds, about 14,000 (4.5%) showed an effect of 50% or more. Effects have a minus sign here. Some of the results follow.
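Further: peak tail current of the secondary pulse compared with the same well before compound.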

In this experiment the target is human ether-à-go-go-related gene (hERG) potassium channel (human, UniProt Q12809). As to the kind of experiment: primary screen, population patch clamp on CHO cells stably expressing hERG.
Chain of human ether-à-go-go-related gene (hERG) potassium channel (Q12809 whole entry, looked up): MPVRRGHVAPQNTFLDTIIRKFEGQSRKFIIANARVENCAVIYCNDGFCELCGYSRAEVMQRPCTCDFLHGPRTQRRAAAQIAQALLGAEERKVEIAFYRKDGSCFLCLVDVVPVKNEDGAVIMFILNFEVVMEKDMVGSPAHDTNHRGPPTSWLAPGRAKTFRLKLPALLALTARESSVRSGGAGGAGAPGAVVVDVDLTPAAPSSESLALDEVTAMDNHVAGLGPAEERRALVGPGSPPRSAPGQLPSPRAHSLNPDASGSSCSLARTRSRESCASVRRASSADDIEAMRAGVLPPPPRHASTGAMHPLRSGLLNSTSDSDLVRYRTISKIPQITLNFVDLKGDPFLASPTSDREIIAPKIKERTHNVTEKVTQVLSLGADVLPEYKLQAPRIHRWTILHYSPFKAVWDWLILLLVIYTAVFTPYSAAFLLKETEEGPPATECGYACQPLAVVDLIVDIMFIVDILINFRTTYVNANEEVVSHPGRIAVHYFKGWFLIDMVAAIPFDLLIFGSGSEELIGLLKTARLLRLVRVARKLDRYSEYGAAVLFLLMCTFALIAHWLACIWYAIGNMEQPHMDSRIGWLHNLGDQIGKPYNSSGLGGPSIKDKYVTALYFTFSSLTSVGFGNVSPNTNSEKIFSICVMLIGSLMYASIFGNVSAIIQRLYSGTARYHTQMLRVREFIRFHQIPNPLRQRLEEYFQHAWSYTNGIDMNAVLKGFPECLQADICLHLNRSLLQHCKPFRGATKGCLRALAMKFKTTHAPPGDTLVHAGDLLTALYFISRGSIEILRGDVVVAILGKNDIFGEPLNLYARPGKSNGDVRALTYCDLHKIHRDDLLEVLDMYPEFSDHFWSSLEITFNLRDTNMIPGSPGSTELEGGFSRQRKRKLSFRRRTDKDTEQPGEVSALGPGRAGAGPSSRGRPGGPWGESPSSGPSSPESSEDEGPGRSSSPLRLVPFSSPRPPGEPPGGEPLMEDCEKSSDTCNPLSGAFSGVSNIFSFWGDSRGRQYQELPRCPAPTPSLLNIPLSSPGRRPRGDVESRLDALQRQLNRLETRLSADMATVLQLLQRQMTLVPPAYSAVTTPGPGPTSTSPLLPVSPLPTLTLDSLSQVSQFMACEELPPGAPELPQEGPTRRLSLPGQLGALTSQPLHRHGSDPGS
As for `Cc1sc2ncn(CC(=O)NCCCN3CC(C)CC(C)C3)c(=O)c2c1S(=O)(=O)N1CC(C)CC(C)C1` (centres unmarked), the “hERG current change (%, negative = inhibition) at 10uM” value is recorded as -32.1%. As to `COC(=O)c1cc(NC(=O)Cn2c(=O)oc3ccccc32)cc(C(=O)OC)c1`, the “hERG current change (%, negative = inhibition) at 10uM” value is 12.4%. Take `CC(C)(C)[C@H]1C=C(C(=O)Nc2ccccc2)O[C@@H](OCc2ccc(CO)cc2)C1`: the “hERG current change (%, negative = inhibition) at 10uM” value was -20.8%.

For `O=C(Cc1cccs1)NCCS(=O)(=O)N1CCN(c2cccc(Cl)c2)CC1`, the “hERG current change (%, negative = inhibition) at 10uM” value is -28.4%. Regarding `COc1ccc(C2Nc3ccccc3C(=O)N2C2CCCCC2)cc1` (centres unmarked), the “hERG current change (%, negative = inhibition) at 10uM” value is listed as -1.76%. For `Cc1cc(C)cc(C(=O)Nc2nnc(SCC(=O)NCC3CCCO3)s2)c1` (centres unmarked) the value was 10.2%; for `COc1ccc(NC(=O)CN2C(=O)NC(c3ccccc3)(c3ccccc3)C2=O)cc1`, -55%.

As to `COc1ccc(C(=O)NNC(=S)NC(=O)/C=C/c2cccs2)cc1`, the “hERG current change (%, negative = inhibition) at 10uM” value was determined as 7.81%. As for `CN(C)S(=O)(=O)c1cccc(COC(=O)CN2CCCCCC2=O)c1`, the figure is 9.49%. For `O=C(CN1CCN(c2ccccn2)CC1)N1c2ccccc2CCc2ccccc21.O=C(O)C(=O)O` the value was -19.1%; for `O=C(O)Cc1sc(NC2CCCCC2)nc1-c1ccc(Cl)cc1`, 14.2%.

In the case of `COc1c(Br)cc(Br)cc1C(=O)Nc1ccccc1N1CCCC1`, the “hERG current change (%, negative = inhibition) at 10uM” value amounted to 27.3%. As for `COc1ccc(OC)c(CCNC(=O)CCc2cn(C)c3ccccc23)c1`, the “hERG current change (%, negative = inhibition) at 10uM” value is reported as -2.8%. Turning to `N#CCC(=O)Nc1ccc(C(=O)N2CCN(S(=O)(=O)c3ccc4ccccc4c3)CC2)cc1`, the “hERG current change (%, negative = inhibition) at 10uM” value was 6.47%.

In the case of `Cc1onc(-c2ccccc2Cl)c1C(=O)Nc1nnc(Cc2ccc(Cl)cc2)s1`, the “hERG current change (%, negative = inhibition) at 10uM” value was 5.68%. On to `O=C(NCCCCO)C(F)(F)C(F)(F)C(F)(F)C(=O)NCCCCO`, for which the “hERG current change (%, negative = inhibition) at 10uM” value worked out at 20.1%. As for `Brc1ccccc1-c1nnc(CSc2nnnn2-c2ccccc2)o1`, the figure is -13.1%; as for `CCOCCCNC(=O)C(NC(=O)Cc1c[nH]c2ccccc12)c1ccc(OC)cc1` (centres unmarked), 10.2%.

`CCOc1ccc(-n2cnnn2)cc1S(=O)(=O)N1CCC(C)CC1C` (centres unmarked): the “hERG current change (%, negative = inhibition) at 10uM” value is listed as -19.7%. On to `NS(=O)(=O)c1ccc(NC(=S)Nc2ccn(Cc3cccc4ccccc34)n2)cc1`, for which the “hERG current change (%, negative = inhibition) at 10uM” value is 15.8%. Turning to `CC(NS(=O)(=O)c1ccc(OCC(=O)N2CCOCC2)cc1)c1ccccc1` (centres unmarked), the “hERG current change (%, negative = inhibition) at 10uM” value worked out at 16.7%. For `O=S(=O)(NCCCNS(=O)(=O)c1c(F)cccc1F)c1ccc2c(c1)OCCO2` the value was -3.98%; for `O=C(Cc1cc(=O)[nH][nH]1)N/N=C/c1ccccc1[N+](=O)[O-]`, -0.969%.
